# Measured values published in publication PMC6212790.
# Some of the results follow. At the low end of the ranking the order means little.
# Biological target: T1, GST-Rok (full length) (UniProt O34857)
# T1 sequence: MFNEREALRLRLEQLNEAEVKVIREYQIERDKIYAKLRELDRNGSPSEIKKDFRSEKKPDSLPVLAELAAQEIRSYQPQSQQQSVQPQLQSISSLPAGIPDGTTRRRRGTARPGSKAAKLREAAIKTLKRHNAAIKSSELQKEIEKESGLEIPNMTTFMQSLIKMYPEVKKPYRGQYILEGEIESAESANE
# Assay: protein binding microarray;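 note: rank score from −0.5 (least bound) to 0.5 (best bound)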
# Details: Rok is a gene silencer of Bacillus subtilis; high values mean tight binding; most listed sequences are background and not binding sites; double strand, one strand shown
row,Sequence,binding signal
1,GTAGTTTA,0.382 E-score
2,AACAACTG,0.0925 E-score
3,ATTGGGTG,-0.0963 E-score
4,AGAGTGCT,-0.0247 E-score
5,CTAGTGCC,0.0302 E-score
6,GTTGACCA,-0.0343 E-score
7,ATTCCCTA,0.104 E-score
8,ATGTGCTC,0.0109 E-score
9,GCGGCACA,-0.15 E-score
10,CAGTCCCA,-0.125 E-score
11,ATTCGTGA,0.0968 E-score
12,TCTGTTAA,-0.0252 E-score
13,ATTCGCTA,0.135 E-score
14,CAAAATAG,0.225 E-score
15,TACGCATA,-0.0665 E-score
16,AGTGATTA,0.144 E-score
17,AAGGCTAC,0.0185 E-score
18,CATATGCA,0.117 E-score
19,GCCGCGGC,-0.315 E-score
20,AGCTGCAG,-0.0626 E-score
21,ATGCGAGC,-0.126 E-score
22,CCTCACCG,-0.0671 E-score
23,GCCCCTGA,-0.341 E-score
24,ATTACAAC,0.286 E-score
25,ATGTTAAG,0.0993 E-score

row,Sequence,binding signal
1,AATATAAC,0.193 E-score
2,AGGTCACC,-0.279 E-score
3,GAAGTGAA,-0.111 E-score
4,CGCCCACA,-0.238 E-score
5,AAGTTGGT,0.0708 E-score
6,TATCTTAA,-0.00635 E-score
7,CTTTAGCC,-0.184 E-score
8,CGTGTTAC,0.0982 E-score
9,GGGCTCTA,0.0525 E-score
10,ATCCCGAA,0.0612 E-score
11,ATTAATCC,0.232 E-score
12,CAGGTCTA,0.00167 E-score
13,AACGGAGA,-0.0536 E-score
14,CACCTAAA,0.131 E-score
15,TTCCGCAA,0.142 E-score
16,ACCGTACA,0.157 E-score
17,GGTTTAAA,0.0123 E-score
18,CTCGTTAC,0.11 E-score
19,CCATCAGC,-0.247 E-score
20,AGCCGTCC,-0.298 E-score
21,CAAAGAGA,-0.365 E-score
22,CACCATAA,0.166 E-score
23,AGTGCGTA,0.164 E-score
24,TAGAGAAA,0.223 E-score
25,CCTGGGAG,-0.315 E-score

row,Sequence,binding signal
1,GGCATTTA,0.18 E-score
2,AGGGATCG,-0.337 E-score
3,AGAAGAGG,-0.171 E-score
4,CCGTTCCG,-0.337 E-score
5,CACACGAA,0.0616 E-score
6,CTAGCATA,0.201 E-score
7,AGTTTAGG,0.0837 E-score
8,CGACAAGA,-0.111 E-score
9,GTCCCCGA,-0.268 E-score
10,GGCAATAA,0.168 E-score
11,CTTATACC,0.244 E-score
12,CCCCCCGC,-0.442 E-score
13,TTCTCCAA,0.114 E-score
14,ACCGTCGA,0.0177 E-score
15,AACTCCGA,-0.0212 E-score
16,GCAATAGA,0.29 E-score
17,ACAATGCA,0.0247 E-score
18,AAGAGGCC,-0.219 E-score
19,CCTTGTGC,-0.181 E-score
20,GCCTCTAC,-0.00562 E-score
21,CAATGGAA,-0.041 E-score
22,TAAATCGA,0.0795 E-score
23,CATCCGGA,-0.0956 E-score
24,ACCTTCCA,-0.0109 E-score
25,GAGTGTAA,0.0681 E-score

row,Sequence,binding signal
1,ACCCGCCC,-0.0941 E-score
2,ACAGCACG,-0.0535 E-score
3,CACCTTTA,-0.0478 E-score
4,CTAAGTCC,-0.114 E-score
5,CCGGAATC,-0.0159 E-score
6,AATTTCTC,0.189 E-score
7,AATCGACG,-0.112 E-score
8,GGAACCCA,-0.14 E-score
9,AATCGGTA,0.119 E-score
10,CAGACCTG,-0.242 E-score
11,GGGCCAAC,-0.325 E-score
12,CCCGGGCC,-0.426 E-score
13,GATCCAGC,0.0112 E-score
14,AATACCCC,-0.205 E-score
15,CCTGTCTA,0.194 E-score
16,CCTCAACC,-0.245 E-score
17,TACTGCAA,0.104 E-score
18,AAGCTTCT,0.0357 E-score
19,GATTCAAC,-0.116 E-score
20,ACGGTGAA,0.0102 E-score
21,CGGGGTCA,-0.417 E-score
22,CACACAGA,-0.066 E-score
23,CAGGGCAA,-0.202 E-score
24,GTAGCAGA,0.108 E-score
25,TCCATAGA,0.114 E-score

row,Sequence,binding signal
1,ACCGAGTA,0.0133 E-score
2,AGCCTTGG,-0.204 E-score
3,CGTAAATC,0.0869 E-score
4,AATCGGCA,-0.0582 E-score
5,CGTTATTA,0.236 E-score
6,CACACAAA,0.0382 E-score
7,CGCCACGC,-0.413 E-score
8,CGTATCGC,-0.0302 E-score
9,ATTGATCG,0.0726 E-score
10,ACTCTCTC,-0.0673 E-score
11,AAGCAACG,-0.116 E-score
12,GCCAGAAA,-0.161 E-score
13,CCAGTGCA,-0.119 E-score
14,AGGTTAGA,-0.0489 E-score
15,GCAATCGA,0.025 E-score
16,GTCACGAA,-0.0178 E-score
17,TCGTTCAA,0.0056 E-score
18,AACAACGG,-0.259 E-score
19,ACGACTCT,-0.0544 E-score
20,AAACCACC,-0.0925 E-score
21,AGCTAATA,0.255 E-score
22,CTATGACA,0.117 E-score
23,ATTTCTCA,0.165 E-score
24,AAGTGATA,0.243 E-score
25,GGAGATAA,0.202 E-score

row,Sequence,binding signal
1,GCTCCATA,0.0969 E-score
2,CGATAGAA,0.344 E-score
3,AATTTGAA,0.0473 E-score
4,CTTTGTAC,0.158 E-score
5,AACCAATT,0.0583 E-score
6,ACATAGAA,0.242 E-score
7,CTGGAGTC,-0.224 E-score
8,AGTGACCA,-0.217 E-score
9,ACTATAAT,0.411 E-score
10,CTTGCACC,-0.0785 E-score
11,CCTGCAGC,-0.265 E-score
12,GAAATGTA,0.351 E-score
13,AGTACAGC,0.208 E-score
14,ACGGGGTC,-0.401 E-score
15,CACGACAA,-0.122 E-score
16,ATCTGTAG,0.291 E-score
17,CTCATGAC,-0.000829 E-score
18,CATTATTC,0.228 E-score
19,CAATCTGA,-0.0533 E-score
20,AGTTATTA,0.188 E-score
21,GCAGGCGC,-0.256 E-score
22,ATACTCCA,0.0647 E-score
23,GGCATATA,0.104 E-score
24,AAAGAACT,0.115 E-score
25,CCTGTTCC,-0.23 E-score

row,Sequence,binding signal
1,CCTACACC,-0.000572 E-score
2,CTCCTGCA,-0.233 E-score
3,ACAGGGAG,-0.272 E-score
4,GCGTTACC,-0.0226 E-score
5,TGCTTGAA,-0.0266 E-score
6,CGTAATTA,0.328 E-score
7,AAGTTGCA,0.0433 E-score
8,TAACGGTA,0.259 E-score
9,ATTCCAAC,0.228 E-score
10,CGCTGAGA,-0.373 E-score
11,AAGGGTCG,-0.372 E-score
12,ACGAAAAG,-0.0345 E-score
13,CCGTTAAG,-0.0263 E-score
14,CACATGAC,-0.00931 E-score
15,AGAGGACA,-0.229 E-score
16,CAGTTGCG,-0.0413 E-score
17,GTCCCTCA,-0.236 E-score
18,CCGACTAA,0.0388 E-score
19,ACCGGGGA,-0.132 E-score
20,CACGCTGG,-0.0903 E-score
21,CCACCATA,0.146 E-score
22,AAGAGATC,-0.0676 E-score
